Reference: PubChem BioAssay AID493208 (National Center for Advancing Translational Sciences (NCATS), 2011)
About 340 (0.77%) of roughly 44,000 compounds were called active. About 5% were inconclusive and are not listed. The call rests on the fitted dose curve; in most records, active means well fitted inhibition curve with a large enough effect; inconclusive means small, poorly fitted or top-dose-only effect; inactive means flat fitted curve, though single readings scatter. The list shows a part of the results.

assay: Acumen qHTS Assay for Inhibitors of the mTORC1 Signaling Pathway in MEF (Tsc2-/-, p53-/-) Cells: Sytravon; settings: phospho-rpS6 immunofluorescence/PI, 24 h; series mostly up to 38.3 µM; activity change, negative = inhibition: at the top concentration; further: nearly all actives have a fitted effect of over 50% in size;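 on activity change, negative = inhibition: plate controls were DMSO for no effect and rapamycin for full effect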
From the text: NIH Molecular Libraries Probe Production Centers Network [MLPCN] NIH Chemical Genomics Center [NCGC] MLPCN Grant: NS059428-01 Assay Submitter (PI): Blenis, John; Hoffman, Greg; Harvard University NCGC Assay Overview: The mammalian target of rapamycin (mTOR) is an intracellular serine/threonine kinase Aberrant regulation of mTOR signaling plays a causative role in a number of human diseases, including cancer, benign tumors such as lymphangioleiomyomatosis (LAM) and Tuberous Sclerosis Complex (TSC), and metabolic diseases such as diabetes and obesity. This project aims to identify inhibitors of ribosomal protein S6 (rpS6) phosphorylation. The phosphorylation of rpS6 is a key event downstream of mTOR activation. The assay uses a phospho-specific antibody of phospho-rpS6 to detect inhibitors of mTOR activation. Mutations in the Tsc1 and Tsc2 genes are the underlying genetic lesions responsible for TSC, causing constitutive activation of the mTORC1 pathway and leading to profound effects on cell metabolism. Aberrant metabolism in cancer has recently received significant attention as a target to develop therapeutic agents in the treatment of cancer.1 As Tsc2-/- cells have lost the ability to respond to energy and growth factor deprivation, these cells are unable to properly down regulate cellular biosynthetic processes in response to metabolic stress, and are thus extremely sensitive to glucose deprivation-induced death.2 A central goal of this project is to explore the unique cell survival and metabolic properties of cells with Tsc1 or Tsc2 by screening for compounds that selectively target the Tsc2-/- MEFs by screening both Tsc2-/- and WT MEF cell lines. We hope to better understand these aspects of TSC physiology in order to exploit them for therapeutic benefit.
NCGC Acumen Assay Protocol Summary: For quantitative high throughput analysis of mTORC1 signaling, we developed a cell-based assay for immuno-fluorescence based detection of rpS6 phosphorylation on the Acumen Explorer that will be used a platform for the primary small molecule screen. Mouse embryonic fibroblasts (MEFs) are cultured in 1536-well plates using DMEM + 10% FBS. Twenty-four hrs after plating, test compounds (solubilized in DMSO) are delivered and incubated with the cells for 24 hrs at 37 degree Celsius. Following the incubation, media with compound is aspirated and the cells are fixed in 4% paraformaldehyde (PFA) containing PBS + 0.2% TX-100. Next, PFA is aspirated, cells are washed two times with PBS plus 0.2% TX-100 and the cells are blocked for 1 hr at room temperature (blocking buffer: LiCOR Blocking Buffer plus 0.2% TX-100). […] Cells are washed two times with PBS plus 0.2% TX-100, and stained with 10 uM propidium iodide (PI) for 20-25 minutes for cell number measurement (1:500 dilution of Hoescht staining is also added for IN Cell imaging). The plates are scanned on the Acumen Explorer laser scanning instrument (TTP Labtech) using the 488nm laser for simultaneous excitation of the Alexa-488 and PI. […] The normalized phospho-S6 staining is calculated as the ratio of the integrated Alexa 488 intensity divided by the integrated PI intensity for the single concentration rapamycin control (7.5 nM) and DMSO columns. […] Inhibition of the pathway is defined based on the normalized phospho-S6 intensity in rapamycin treated cells. Active cells are defined as those with a normalized phospho-S6 staining above this threshold, and each treatment is reported as the % positive cells in the well, where thresholds are defined by selecting wells with the highest and lowest signal and differentiating between the % non-active and % active populations. In addition to the pathway specific phospho-S6 endpoint, the number of PI stained cells from the Acumen is recorded as a measure of cell viability. The primary screen was performed with a MEF cell line in a defined genetic background, Tsc2-/-, p53-/- cell line stably transfected with an empty vector control (Tsc2-/- MEF).
Potency means the concentration at half of the fitted maximal effect.

Activity change, negative = inhibition, inactive:
Cc1cccn2c(=O)c(C(=O)N3CCN(c4ccccc4)CC3)cnc12 0.452%
Cc1ccc(C(=O)c2c(N)c(C(=O)Nc3cccc(C(F)(F)F)c3)c3ccccn23)cc1 -5.96%
Cc1ccc(-n2c(=O)c3oc4ccccc4c3n(Cc3cccc(F)c3)c2=O)cc1C -1.14%
CCCCOc1ccc(C(=O)Nc2cccc(-c3nc4ccccc4o3)c2C)cc1 4.85%
Cc1nc2nc(NCc3ccc(Br)cc3)[nH]n2c(=O)c1Cc1ccccc1 -6.44%
CCCCC(CC)CNC(=O)CCCCCn1c(=O)[nH]c2ccsc2c1=O (configuration not stated) -0.733%
O=C(c1ccc2c(c1)N(Cc1ccc(Cl)cc1)C(=O)c1ccccc1S2(=O)=O)N1CCOCC1 4.05%
CCCC(=O)Nc1ccc2oc(-c3ccc(O)c(Br)c3)nc2c1 -20.9%
CC(C)c1ccc(NC(=O)c2ccc(=O)n(Cc3ccccc3)c2)cc1 -10.2%
CCc1ccc(-n2c(=O)c3ccccc3n(Cc3ccccc3C#N)c2=O)cc1 -2.69%
COc1cccc(C2C(C(N)=O)=C(C)Nc3ncnn32)c1 (configuration not stated) -1.84%
COc1ccc(OC)c(NC(=O)C2=C(C)C(=O)OC23CCN(C(C)C)CC3)c1 -13.6%
O=C(CSc1nc2c(oc3ccccc32)c(=O)n1-c1ccccc1)Nc1ccc(F)c(Cl)c1 0.768%
CCOC(=O)c1c(NC(C)=O)c2c3c(sc2n1Cc1cc(C)ccc1C)CCCC3 2.36%
CCOc1ccccc1NC(=O)Cn1c(=O)n(Cc2ccco2)c(=O)c2sc3ccccc3c21 0.44%
COc1ccccc1NS(=O)(=O)c1cn(C)c(C)n1 4.14%
COc1ccc(N2CC(NC(=O)COc3cccc(C)c3)CC2=O)cc1OC (configuration not stated) -0.584%
Cc1ccc(C)c(N2CCN(C(=O)Cn3nc(C)c4sc5ccccc5c4c3=O)CC2)c1 -8.96%
COc1ccccc1N(CC(=O)Nc1ccccc1C(F)(F)F)S(=O)(=O)c1ccc(C)cc1 2.17%
CCC(O)c1nc2ccccc2n1Cc1cc(C)ccc1C (configuration not stated) 0.766%
CCOc1ccc(NC(=O)CSc2nc3ccsc3c(=O)n2CCC(C)C)cc1 -7.71%
COc1ccc(OC)c(NC(=O)C2CCN(S(=O)(=O)c3ccc4c(c3)CC(C)N4C(C)=O)CC2)c1 (configuration not stated) 0.353%
Cc1ccc(NC(=O)C2CCN(S(=O)(=O)c3ccc4c(c3)CCCC(=O)N4)CC2)cc1N(C)C -8.51%
COc1ccc(OC)c(NC(=O)C(C)n2c(=O)c(-c3ccccc3NC(C)=O)nc3ccccc32)c1 (configuration not stated) -3.3%
O=C(CC1Sc2ccccc2NC1=O)Nc1cccc(C(F)(F)F)c1 (configuration not stated) -2.22%
COc1ccc(-c2nc(CSCC(=O)NCCC(C)C)c(C)o2)cc1OC -3.47%
Cc1cc(Nc2cccc(Cl)c2)nc2ccc(NC(=O)COc3ccc(Cl)cc3)cc12 -22.4%
CC(C)c1ccc(NC(=O)c2cc3c(=O)[nH]c4ccccc4c3n2C)cc1 -15.9%
O=C(CSc1cn(CC(=O)N2CCCCC2)c2ccccc12)NCc1ccccc1Cl -4.6%
CCN1C(=O)c2ccccc2S(=O)(=O)c2ccc(C(=O)NCc3ccccc3OC)cc21 0.777%
O=C(CN1C(=O)c2cccnc2Sc2ccccc21)Nc1cc(F)ccc1F -5.35%
Cc1ccc(-n2nc(C)c3c(C(=O)NCCc4ccc(S(N)(=O)=O)cc4)cc(C)nc32)cc1 3.96%
CCC1CN(C(=O)N2CCC(C(=O)NCc3cccc(F)c3)CC2)c2cc(C)ccc2O1 (configuration not stated) 9.45%
CCCCN(C)CCCNC(=O)c1cn(CC)c2ccc(S(=O)(=O)N3CCc4ccccc4C3)cc2c1=O -6.17%
COc1ccc(NC(=O)Nc2cc(C(=O)NCc3ccc(C)cc3)ccc2N2CCCC2)cc1 3.71%
COc1ccccc1CNC(=O)c1cc(S(=O)(=O)N2CCCC(C)C2)cn1C (configuration not stated) 7.25%
CCc1ccc(NC(=O)CC2C(=O)N(c3ccc(F)cc3)C(=O)N2Cc2ccc(F)cc2)cc1 (configuration not stated) -5.5%
Cc1ccc(-n2nc(C)c3c(C(F)(F)F)cc(-c4cccnc4)nc32)cc1C 2.3%
Cc1ccc2oc(-c3ccc(NC(=O)c4oc5ccc(Cl)cc5c4C)cc3)nc2c1 -1.87%
Cc1cccc(NC(=O)Cn2c(SCC(=O)NCc3ccccc3)nc3ccccc32)c1C 0%
O=C(c1cnn(-c2ccc(F)cc2)c1-n1cccc1)N1CCN(c2ccccc2)CC1 0.202%
CCOc1ccc(-c2cn3nc(CC(C)C)sc3n2)cc1 2.04%
Cc1ccc(NC(=O)c2ccc(C)c(S(=O)(=O)N3CCCCCC3)c2)cc1 1.14%
COc1ccc(C)cc1NS(=O)(=O)c1ccc2oc(=O)c3ncn(C)c3c2c1 -2%
CCN(CC)c1ccc(C2C(C(N)=O)=C(C)Nc3nc(SCc4ccccc4Cl)nn32)cc1 (configuration not stated) -13.2%

Potency, active:
COc1cc(Nc2nc(-c3ccc(OC)c(OC)c3)nc3ccccc23)cc(OC)c1 16.5 µM
COc1ccccc1Nc1c2c(nc3ccc(NC(=O)c4ccc(N(C)C)cc4)cc13)CCCC2 5.21 µM
